Data from the supplement of paper PMC3334620.
The full ranking holds about 33,000 sequences; the median of “E-score (-0.5 to 0.5)” is about -0.032, and the highest 2% start at about 0.36. Some of the results follow.

target: T1, Sko1 (UniProt Q02100); test: PBM E-score (8-mer binding enrichment) (E-score (-0.5 to 0.5)); higher = stronger / more preferred TF binding; most listed sequences are background and not binding sites; settings: protein concentration: 200 nM; construct: GST-full length
T1 sequence: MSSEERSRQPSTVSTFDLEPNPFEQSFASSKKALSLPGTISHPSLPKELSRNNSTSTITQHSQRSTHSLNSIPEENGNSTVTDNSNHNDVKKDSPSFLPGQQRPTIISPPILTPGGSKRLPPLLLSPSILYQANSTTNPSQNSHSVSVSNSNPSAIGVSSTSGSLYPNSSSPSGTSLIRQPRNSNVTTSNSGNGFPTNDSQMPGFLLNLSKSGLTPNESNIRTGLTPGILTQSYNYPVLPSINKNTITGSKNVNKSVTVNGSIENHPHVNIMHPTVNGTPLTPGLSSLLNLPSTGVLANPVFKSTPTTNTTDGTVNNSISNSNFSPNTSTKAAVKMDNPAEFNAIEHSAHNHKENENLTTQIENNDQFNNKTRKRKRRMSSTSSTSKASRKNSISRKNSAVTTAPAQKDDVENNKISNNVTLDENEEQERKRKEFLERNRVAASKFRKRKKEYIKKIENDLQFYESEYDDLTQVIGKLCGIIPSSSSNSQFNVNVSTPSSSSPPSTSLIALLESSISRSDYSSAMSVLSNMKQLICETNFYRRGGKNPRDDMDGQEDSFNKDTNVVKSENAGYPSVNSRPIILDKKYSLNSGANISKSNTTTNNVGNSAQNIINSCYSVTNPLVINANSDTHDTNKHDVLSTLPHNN
Summary of the method: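 Universal all-10-mer Agilent arrays, double-stranded by primer extension on fresh or once-stripped slides, were probed with about 100-200 nM GST-tagged yeast transcription factors made by PURExpress. Fluorescent anti-GST detected bound protein, and masliner normalised the scans. E-scores from the Universal PBM Analysis Suite were given to each ungapped eight-base word pooled with its reverse complement.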

Sequence | PBM E-score
ATGTGCGG | -0.0523
GGTACTGA | -0.0674
GAGTCGCC | -0.275
ACCTTGCC | -0.132
ACGCCAAC | 0.193
GGCCGAGA | -0.215
TGCTGGAA | -0.137
GGCGTTGA | -0.116
CAACACAG | -0.108
GTTACTGA | 0.173
AACGCGTA | 0.287
AGAACACG | 0.116
ATAAACAA | 0.198
CTCATGAA | 0.187
AGTTTGTG | -0.246
CAGGGGCA | -0.00747
CTCCTTCA | -0.267
AGGGATAT | -0.142
GTCAAACA | 0.183
CCCATGGC | -0.236
GCGTAACA | 0.317
AATTTGCA | -0.0162

Sequence | PBM E-score
CCGTATCC | -0.133
CATGTGCC | 0.045
ATCCACGG | -0.0775
GTCCCGTA | -0.168
CACACTAC | 0.0507
AATTTAAC | 0.159
GTAGCATA | 0.152
TTAAAAAA | 0.238
GTAAGGAA | 0.103
CGAGCGAG | 0.157
CGTAATAC | 0.451
CCGCTGGA | -0.296
ACCCCGTG | -0.221
ATTATTCG | 0.216
CTAATAAG | 0.193
ACCTGCAT | -0.13
ATCCTCAT | -0.111
GGTCCGCA | -0.14
AGGCAGTC | -0.183
CCTTCTCC | -0.396
CCAACGTC | 0.236
CGACACGA | 0.0391

Sequence | PBM E-score
AACGAAGC | -0.0636
CTCAATTA | 0.0785
ACTAGCAT | -0.0799
CAGACGGA | -0.205
ACATATTC | 0.232
AAACCTGT | 0.035
AAGGCATG | 0.0622
AGGCGTAA | 0.206
CGCATACC | 0.0198
AAAGTTTC | 0.081
GAGTCGCA | -0.248
GGCAATGA | 0.15
CAGGTGAG | -0.297
GGCCCCAC | -0.124
CTGACTTC | -0.0329
CACGCTGG | -0.0502
CAAGTACA | 0.057
CATCAGGG | -0.0575
AGCAACCG | -0.124
AATCGGCC | -0.316
CCGATCCA | 0.0535
AACGGGCT | -0.192

Sequence | PBM E-score
GGTGATTA | 0.164
ACCCTCCA | -0.325
AACTTGCG | 0.184
ATCAGACA | -0.0138
CTAGTTAC | 0.099
GTACATTA | 0.295
AAGGATTA | -0.0223
AGGTTGAC | -0.0293
AGAGATTA | 0.0827
ACCCGACG | 0.00176
ACTAACCA | -0.0259
GCGCCTAA | -0.0613
CATAGGAG | 0.00533
CACCGAAA | 0.0711
CTCACAGC | -0.0866
ATCTGCGG | -0.0643
ACCAATTG | -0.0372
AGAACCGG | -0.316
ACGCCTCC | -0.151
ATCCCCAG | -0.163
AAATCCTA | 0.17
ACTGAAGA | 0.0507

Sequence | PBM E-score
AGGGGGAG | -0.356
AGCCGTTG | -0.143
CCCGGCGC | -0.279
CCGTTGCC | -0.373
ATCTGAAT | 0.0469
ACAGGGAG | -0.225
GGCTGTCA | -0.243
CCGAACTC | -0.125
AGTGCAGG | -0.123
AGATACCA | -0.0643
CCATGTAA | 0.0164
ACTCTCAT | 0.0617
AGCGGAAA | -0.0595
ATACCTTA | -0.0338
TAAGGCAA | 0.063
AGTGTTAG | 0.0857
TCAGGCCA | -0.147
CCACGGCA | -0.214
AGTCATTG | 0.0177
CTCCAGGC | -0.167
CTTGCGGC | -0.209
AATCCCGG | -0.283
